Settings: Escherichia coli (strain K12), 25 °C, GdnHCl, CD, reversible: Unknown

Substance “Thioredoxin 1 wild type (letters omitted)” has a denaturant m value (pH 6.5, ACES 50 mM) of 2.4 kcal/mol/M, an unfolding free energy (pH 6.5, ACES 50 mM) of 10 kcal/mol and a denaturant m value (pH 7, TES 50 mM) of 2.3 kcal/mol/M. It also gave an unfolding free energy (pH 7, TES 50 mM) of 9.5 kcal/mol, a denaturant m value (pH 7.5, TES 50 mM) of 2.2 kcal/mol/M and an unfolding free energy (pH 7.5, TES 50 mM) of 9 kcal/mol. It also gave a denaturant m value (pH 8, Tris 50 mM) of 2.2 kcal/mol/M, an unfolding free energy (pH 8, Tris 50 mM) of 8.8 kcal/mol and a denaturant m value (pH 8.5, Tris 50 mM) of 2.1 kcal/mol/M. It also gave an unfolding free energy (pH 8.5, Tris 50 mM) of 8.6 kcal/mol.
